Structures are written as SMILES. In all, about 110,000 compounds were measured (“z-score”: median about -0.1, highest 2% from about 2 on). This is one part of the list. Activity calls are given as the source filed them.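 Rule for the calls: active = z-score in the third read window above 3 or below -3; inactive = the rest.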

The target in this assay is Metabotropic glutamate receptor 8 (Rattus norvegicus) (UniProt P70579). Description: rat mGluR8 modulators via GIRK flux, primary screen, cell-based, thallium flux, HTS (AID 488969). Particulars: HEK293 rat mGluR8, GIRK (G protein-gated inwardly rectifying potassium channel) thallium flux, FluoZin2; at 10 µM; stronger effect = higher value; submaximal glutamate (EC20) added with thallium.
Chain of UniProt P70579 (P70579 whole entry, looked up): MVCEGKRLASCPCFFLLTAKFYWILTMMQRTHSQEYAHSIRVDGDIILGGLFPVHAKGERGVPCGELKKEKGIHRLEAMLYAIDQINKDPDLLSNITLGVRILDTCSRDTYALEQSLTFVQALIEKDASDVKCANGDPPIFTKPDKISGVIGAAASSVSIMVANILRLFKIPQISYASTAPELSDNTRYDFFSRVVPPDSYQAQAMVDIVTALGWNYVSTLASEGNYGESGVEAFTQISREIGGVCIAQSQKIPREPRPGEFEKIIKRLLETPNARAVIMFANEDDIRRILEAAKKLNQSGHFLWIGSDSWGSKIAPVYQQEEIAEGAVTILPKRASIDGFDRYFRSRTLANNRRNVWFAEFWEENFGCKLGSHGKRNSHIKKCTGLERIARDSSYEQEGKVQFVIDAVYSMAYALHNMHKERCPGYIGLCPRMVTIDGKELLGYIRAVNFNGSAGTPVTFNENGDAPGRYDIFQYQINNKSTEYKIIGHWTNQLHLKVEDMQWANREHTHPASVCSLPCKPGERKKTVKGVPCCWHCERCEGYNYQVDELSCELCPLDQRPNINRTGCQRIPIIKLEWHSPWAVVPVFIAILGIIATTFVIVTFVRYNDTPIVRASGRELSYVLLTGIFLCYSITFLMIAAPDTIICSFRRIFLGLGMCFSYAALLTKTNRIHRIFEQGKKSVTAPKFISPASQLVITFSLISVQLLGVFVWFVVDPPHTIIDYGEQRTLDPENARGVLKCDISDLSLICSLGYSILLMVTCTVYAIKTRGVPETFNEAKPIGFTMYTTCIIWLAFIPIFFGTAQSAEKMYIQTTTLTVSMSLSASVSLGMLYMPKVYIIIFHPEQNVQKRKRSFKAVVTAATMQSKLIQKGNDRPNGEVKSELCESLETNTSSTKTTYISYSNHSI
Compound `CCCCS(=O)(=O)NC1=NCN(C2CCN(Cc3ccccc3)CC2)CN1` gave a z-score of -0.312.

`Cc1cccc(-c2nc3ccccc3c(=O)n2NC(=O)c2ccc([N+](=O)[O-])c(C)c2)c1` gave a z-score of -0.254.

Take `Cc1ccc(N(C(=O)C2CCCC2)C2C=CS(=O)(=O)C2)cc1` (stereo not drawn): the z-score amounted to 0.0902.

As for `CCC(C)NC(=O)C1CCC(=O)N(c2ccc3c(c2)OCO3)C1c1ccc(OC)cc1` (stereo not drawn), the z-score is -1.82.

The compound `O=c1cc(N2CCN(Cc3ccccc3)CC2)[nH]c(=O)n1-c1ccc(Br)cc1` came in with a z-score of -0.00548.

In turn, `Cc1ccc(CN(c2ccc(C(=O)Nc3cccnc3)cc2)S(C)(=O)=O)cc1` returned a z-score of -0.182.

With `CSCCC(NS(=O)(=O)c1ccc2c(c1)OCCO2)C(=O)NCCc1ccccn1` (stereo not drawn), the z-score is -0.0252.

As for `CC(C)(C)OC(=O)C1C(=O)CC(C)(O)C(C(=O)OC(C)(C)C)C1c1ccco1` (stereo not drawn), the z-score was -0.19.

For the compound `CC(=O)Nc1nn(C)c2nc3cc(C)ccc3cc12`, the z-score is -0.147.

As to `O=S1(=O)NC(=NCc2ccco2)c2ccccc21`, the z-score was 1.85.

The compound `Nc1nc(SCc2c(F)cccc2Cl)[nH]c(=O)c1-c1ccccc1` registered a z-score of -0.234.

In the case of `Cc1ccc(NC(=O)CSc2nc(N)c3c4c(sc3n2)CSC(C)(C)C4)cc1`, the z-score is -0.299.

`O=c1c2c(-c3ccco3)csc2nc(SCc2cn3cccnc3n2)n1-c1ccccc1` returned a z-score of -0.753.

Regarding `Cc1ccc(C2(O)CN(c3ccccc3)C3=[N+]2CCS3)cc1` (stereo not drawn), the z-score was -0.512.

In turn, `Cc1cc(C(F)(F)F)nn1CC(=O)NNC(=S)NCC(C)C` returned a z-score of 0.275.

`O=C(NCCc1ccccc1)c1cccs1` displayed a z-score of -0.239.

Compound `CCCn1nc(C(=O)NC2CCCc3ccccc32)c2ccccc2c1=O` (stereo not drawn) yielded a z-score of -1.21.

On to `COc1ccc(-c2nnc(CSc3nnc(-c4ccncc4)n3C3CCCCC3)o2)cc1OC`, for which the z-score came out at 0.178.

In turn, `CC(C)c1nnc(NC(=O)c2cnccn2)s1` registered a z-score of -0.169.

In the case of `O=C1CC(Nc2ccccc2)C(=O)N1Cc1ccccc1` (stereo not drawn), the z-score worked out at 0.0339.

`O=[N+]([O-])c1cccc(/C=N/Nc2nc(NCc3ccccc3)nc(N3CCOCC3)n2)c1` had a z-score of -0.129.

Compound `CC(C)(C)NC(=O)CCN(/N=C/c1ccc([N+](=O)[O-])o1)C1=NS(=O)(=O)c2ccccc21` showed a z-score of -0.0846.

On to `CCN(c1ccc(NC(=O)CN2C(=O)NC3(CCOc4ccccc43)C2=O)cc1)C(C)C` (stereo not drawn), for which the z-score is -0.636.

In turn, `Cc1ccc(NC(=O)CSc2nc3c(cc2C#N)C(=O)CCC3)cc1S(=O)(=O)N(C)C` had a z-score of -0.571.

For the compound `COc1ccc2c(c1)-c1ccccc1S(=O)(=O)N2C`, the z-score was -0.124.

As to `CN(CP(=O)(O)CN(C)S(C)(=O)=O)S(C)(=O)=O`, the z-score was 0.00353.

For the compound `COc1cc(C(=O)Nc2ccc(Br)cc2C(=O)c2cc(OC)c(OC)c(OC)c2)cc(OC)c1OC`, the z-score is -1.48.

The compound `COc1cc(C(=O)N2CCC(NC(=O)C(Cc3ccc(C(C)C)cc3)NC(C)=O)CC2)cc(OC)c1OC` (stereo not drawn) had a z-score of -0.0871.

`CC(C)NC(=O)CCS(=O)(=O)c1ccc(Br)s1`: the z-score was -0.895.

Regarding `CCCCn1c(CNC(=O)C23CC4CC(CC(C4)C2)C3)nnc1SC(C)CC` (stereo not drawn), the z-score is -0.667.

`Cc1c(-c2ccc(Cl)cc2)oc(=O)c2c(N)n(-c3ccccc3)nc12` came in with a z-score of -0.106.

`O=C(O)c1ccc(CSc2nnc(COc3ccc(Cl)cc3Cl)o2)cc1` displayed a z-score of -0.956.

In turn, `O=C(CCn1nnc2ccccc21)Nc1nnc(COc2ccccc2F)s1` gave a z-score of -0.232.

The compound `COC(=O)c1sc(S(=O)(=O)NCc2cccs2)c(C(=O)OC)c1C` had a z-score of -0.608.

In turn, `COc1ccc(CCNS(=O)(=O)c2ccc(OC)cc2)cc1` displayed a z-score of -0.167.

`CC(=O)Nc1cccc(C(=O)OCc2ccccc2)c1` displayed a z-score of -0.205.

Compound `CCOC(=O)C1CCN(Cc2cnc(Oc3ccc(C(C)(C)C)cc3)s2)CC1` displayed a z-score of -0.141.

`O=C(CN1CCN(Cc2ccc(F)cc2Cl)C1=O)NCCc1ccc(Cl)cc1` returned a z-score of -0.188.

For the compound `O=C(CN1CCN(C(=O)N2CCOCC2)CC1)Nc1ccc(Br)cc1`, the z-score is -0.0769.

In turn, `CCOC(=O)C1=C(C)N=C2c3ccccc3C(=O)C2C1c1ccc(Br)cc1` (stereo not drawn) displayed a z-score of -0.196.

As for `CC(=O)Nc1ccc(SCC(=O)N(CCC#N)c2cc(C)cc(C)c2)cc1`, the z-score is -0.254.

Consider `CCc1nc2scc(-c3cccs3)c2c(=O)o1`, for which the z-score is -0.0119.

`CC(=O)Cc1nsc(NC(=O)c2ccc(-c3cccc(C(F)(F)F)c3)o2)n1` gave a z-score of 0.0938.

With `Cc1ccc2cccc(O)c2[n+]1[O-]`, the z-score turned out to be 0.155.

As to `COc1cc(/C=C/C(=O)OCC(=O)Nc2ccc(C)c(S(=O)(=O)N3CCCCC3)c2)ccc1O`, the z-score was -0.427.

Compound `Cc1cccc(C)c1C(=NCCCN(C)C)c1ccccc1` showed a z-score of 0.959.

`COc1ccc(Nc2nc3ccccc3n3nnnc23)cc1` came in with a z-score of -0.186.

For the compound `O=C(NC1CCCC1)C(c1cccs1)N(C(=O)c1ccco1)c1ccc2c(c1)OCO2` (stereo not drawn), the z-score was -0.208.

Take `CCc1nnc(NC(=O)/C=C/c2ccc(C)o2)s1`: the z-score was -0.436.

As for `Cc1[nH]c(=O)[nH]c(=O)c1CSc1nnc([C@@H](NC(=O)OC(C)(C)C)C(C)C)o1`, the z-score is -0.0451.

In turn, `COCCn1c(SCC(=O)OC(C)C)nnc1-c1ccccc1` displayed a z-score of -0.0563.

`CCn1c2ccccc2c2nnc(SCC(=O)Nc3cc(C)on3)nc21` yielded a z-score of -0.57.

Compound `Cc1ccc(C(=O)N/C(=C\c2cccs2)C(=O)NCCc2c[nH]c3ccccc23)cc1` returned a z-score of -0.278.

On to `Cc1ccc(C)c(N2CCN(c3nc4ccccc4c(=O)n3Cc3ccccc3)CC2)c1`, for which the z-score turned out to be 0.844.

The compound `C=CCNC(=O)c1ccc2c(c1)nnn2C` showed a z-score of 1.21.

The compound `COc1ccc(-c2nc(CC(=O)O)cs2)cc1` came in with a z-score of -0.189.

The compound `CCOc1ccc(-n2cnnn2)cc1S(=O)(=O)Nc1c(C)cccc1C` gave a z-score of 0.922.

`O=C(CSc1nnc(CNC(=O)c2ccco2)o1)c1ccc(Cl)cc1` gave a z-score of 1.44.

In turn, `C/C(=N\Nc1cc(Cl)nc(C)n1)c1ccc(Cl)c(Cl)c1` yielded a z-score of -0.151.

Compound `O=C(N/N=C/c1ccccc1)c1c(O)c2ccccc2[nH]c1=O` yielded a z-score of -0.294.

For the compound `COC(=O)CSc1nnc(SCc2ccc(OC)cc2)s1`, the z-score is active: -3.01.

Take `CC1=C(C(=O)Nc2ccccc2)C(c2ccco2)n2ncnc2N1` (stereo not drawn): the z-score is -0.45.

As for `CCN1CCN(CC(O)COc2cccc(OC)c2)CC1` (stereo not drawn), the z-score amounted to 1.01.

Regarding `CCN(CC)c1ccc(-c2nnc(SCC(=O)Nc3ccccc3C#N)n2-c2ccccc2)cc1`, the z-score is -0.885.

Turning to `O=S(=O)(Nc1ccncc1)c1ccc(Cl)cc1`, the z-score was -0.16.

The compound `Cc1cc(C)c2c(c1)cc(C)c1nnc(SCC(=O)Nc3ccccc3N3CCOCC3)n12` came in with a z-score of 0.0516.

`COc1ccc(N(CC(=O)N2CCc3ccccc3C2)S(C)(=O)=O)cc1OC` registered a z-score of 0.0527.

Compound `Cc1ccc(OCC(=O)Nc2ccc(-c3nnc(-c4ccco4)o3)cc2)cc1` had a z-score of 0.14.

On to `Cc1ccc(CN(CC(=O)NC2CCCC2)C(=O)CSc2nnc(COc3ccccc3)o2)cc1`, for which the z-score was found to be 0.165.

`Cc1ccc(NC(=O)CCSc2ccccn2)cc1` showed a z-score of 0.231.

In turn, `COc1ccc(/C=C/c2cc(=O)c3cc(Cl)ccc3o2)cc1` gave a z-score of -0.248.

Compound `Cc1ccc(S(=O)(=O)N2CCCC2c2nc3ccccc3s2)cc1` (stereo not drawn) displayed a z-score of 0.106.

Compound `COc1ccc(NC(=O)NCc2cccnc2)cc1OC` displayed a z-score of 0.0502.

`Cc1nn(CC(=O)Nc2ccc3c(c2)nc(CN2CCCCC2)n3C)c(=O)c2ccccc12` came in with a z-score of -0.07.

`COc1ccccc1C=NC(CO)C(O)c1ccc([N+](=O)[O-])cc1` (stereo not drawn): the z-score stood at 1.75.

For the compound `O=C(NCc1ccccc1Cl)c1cnn2cccnc12`, the z-score was found to be 0.242.

On to `c1ccc(-c2noc(CN3CCN(C(c4ccccc4)c4ccccc4)CC3)n2)cc1`, for which the z-score was -0.00606.

As for `Cc1ccc(-c2nnn(CC(=O)NCCC3=CCCCC3)n2)cc1`, the z-score was found to be 1.16.

Regarding `CCOc1ccccc1Nc1nc(-c2sc(NC(=O)c3ccco3)nc2C)cs1`, the z-score is -0.0936.

`COCCOC(=O)C1=C(C)N(Cc2ccccc2)C(=O)NC1c1ccc(OC)cc1` (stereo not drawn) came in with a z-score of -0.162.

The compound `CN1CCC(N(C)C(=S)NC(=O)C23CC4CC(CC(C4)C2)C3)CC1` showed a z-score of 0.094.

In the case of `COc1cc(C2=NOC(C(=O)NCc3ccc(F)cc3)C2)cc(OC)c1OC` (stereo not drawn), the z-score amounted to 0.327.

In the case of `Fc1ccc(CNC(=S)Nc2ccc(OC(F)F)cc2)cc1`, the z-score turned out to be 1.07.

In the case of `O=C(NCCCc1ccccc1)Nc1ccccc1`, the z-score came to 0.456.

On to `Cc1ccc(C(C)C)c(OCc2ccc(C(=O)N/N=C/c3ccc(O)c(O)c3)cc2)c1`, for which the z-score was -0.162.

As to `Cc1cccc(N=C/C(C(=O)C(F)(F)F)=C(\O)c2ccco2)c1`, the z-score is -0.299.

In turn, `Cn1nc(-c2ccccc2F)c2cc(C(=O)N3CCN(C(=O)c4ccco4)CC3)sc21` registered a z-score of -0.882.

In turn, `O=S(=O)(c1ccc(Cl)s1)N1CCC(Cc2ccccc2)CC1` registered a z-score of 0.0121.

`Cc1nn(CC(=O)NCc2ccc(OC(C)C)cc2)c(=O)c2cc3occc3n12` had a z-score of -0.4.

Regarding `Cn1cc(S(=O)(=O)N2CCc3ccccc3C2)c(=O)n(C)c1=O`, the z-score is -0.0164.

Regarding `Cc1cc2cc(CNC(=O)c3ccc(S(=O)(=O)N4CCCCC4)cc3)ccc2n1C`, the z-score stood at 0.382.

The compound `CCOC(=O)c1[nH]c(C)c(C(=O)OCC(=O)N(CC)C2CCS(=O)(=O)C2)c1C` (stereo not drawn) came in with a z-score of -0.798.

The compound `Brc1ccc(-c2nnc3n2CCCCC3)cc1` gave a z-score of -0.275.

`COc1ccc(Oc2c(Cl)cnn(-c3ccc(C)cc3)c2=O)cc1` registered a z-score of 0.102.

Turning to `CC(C)c1c(O)c2c(n(-c3ccccc3)c1=O)CCCC2`, the z-score is -0.462.

The compound `O=C(Nn1cnnc1)c1cc2c(s1)CCCC2` returned a z-score of 0.889.

Compound `COCC(=O)N(Cc1cc2ccc(C)cc2[nH]c1=O)c1ccc(OC)cc1` gave a z-score of -0.0778.

For `COCCNC(=O)c1onc(CSc2ccc(F)c(F)c2)c1C(=O)O`, the z-score is -0.13.

`O=C(NC1CCCC1)c1ccc(CS(=O)(=O)c2cccc(C(F)(F)F)c2)o1` showed a z-score of 0.632.

In the case of `CNC(=S)Nc1cc(C(F)(F)F)ccc1Cl`, the z-score was -0.109.

In the case of `O=C(NC1CCCCC1)C(c1cccnc1)N(C(=O)CCl)c1ccc(F)cc1` (stereo not drawn), the z-score amounted to 0.00996.

As for `Cn1c(=O)c2c(nc(OC/C=C/c3ccccc3)n2C)n(C)c1=O`, the z-score was -0.629.

With `COc1ccc(OCCC(=O)OCC(=O)NC(=O)NC(C)C)cc1`, the z-score was -0.131.

As for `O=C1SCC(c2ccccc2)=NN1Cc1ccccc1`, the z-score was -0.235.

For the compound `CC(C)(C)NC(=O)NC(=O)CSc1ncc(C(F)(F)F)cc1Cl`, the z-score was -0.0657.

`CCCSc1nc(-n2ncc(C#N)c2N)c2c3c(sc2n1)CCC(C)C3` (stereo not drawn) came in with a z-score of -0.285.

As for `COc1ccc(C(=O)N(CCCO)Cc2cc3c(C)ccc(C)c3[nH]c2=O)cc1OC`, the z-score is 0.0645.

In turn, `CSc1cccc(NC(=O)CN(c2cc(C)ccc2C)S(C)(=O)=O)c1` returned a z-score of 1.11.

These data come from PubChem BioAssay AID488969 (Vanderbilt High Throughput Screening Facility, 2010).
